Measured values taken from PubChem BioAssay AID1240 (Sanford-Burnham Center for Chemical Genomics, 2008).
Hit rate of the full screen: of about 50,000 compounds, about 800 (1.6%) showed an effect of 50% or more. This is one part of the list.

Target: Bcl-2-like protein 10 (Homo sapiens) (UniProt Q9HD36)
Experiment: TR3 peptide-Bcl-B binding displacers, biochemical primary FP assay, phenotype converters (AID 1240);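 further: 0% = Bcl-B with tracer peptide and DMSO and 100% = tracer peptide lacking Bcl-B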
Details: GST-Bcl-B / FITC-TR3 peptide fluorescence polarization; stronger effect = higher value; compound at 3.75 mg/L

UniProt Q9HD36, sequence (Q9HD36 whole entry, looked up): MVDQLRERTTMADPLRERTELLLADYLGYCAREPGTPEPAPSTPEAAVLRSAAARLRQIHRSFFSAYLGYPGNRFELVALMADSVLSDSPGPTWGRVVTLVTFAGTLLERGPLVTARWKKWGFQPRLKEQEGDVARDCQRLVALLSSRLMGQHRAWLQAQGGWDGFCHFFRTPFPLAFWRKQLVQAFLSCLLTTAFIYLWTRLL

SMILES | displacement [%]
COc1cc(C(=O)N2CCCCCC2)cc(OC)c1OC | -5.7
COc1ccc(-c2nc3cc(NC(=O)COc4ccc5ccccc5c4)ccc3o2)cc1OC | 5.9
COc1ccc(-c2nc(-c3cc(OC)c(OC)c(OC)c3)no2)cc1OC | -5.7
Cc1cc(C)c(S(=O)(=O)Nc2ccc(Br)c3cccnc23)c(C)c1 | 7.2
CCOC(=O)COc1cccc2nsnc12 | 0
O=C(N/N=C/c1cccc(O)c1O)c1ccc(-c2ccccc2)cc1 | -8.6
COc1ccc2c(c1OC)C(=O)N(c1nc(-c3ccc(O)cc3)cs1)C2=O | 1.7
CCc1ccc(NS(=O)(=O)c2ccc(NC(C)=O)cc2)cc1 | 3.9
Cc1cc2nc(-c3cc(NC(=O)COc4ccc(Cl)cc4Cl)ccc3O)oc2cc1C | 11.2
O=C(/C=C/c1ccccc1)C1=C(O)C(=O)N(c2cccc(C(F)(F)F)c2)C1c1ccc([N+](=O)[O-])cc1 (stereo unspecified) | 7
Cc1ccccc1NC(=O)c1c(NC(=O)Cc2ccccc2)sc2c1CCC(C)C2 (stereo unspecified) | -4.9
Cc1cccc(OCC(=O)Nc2nc3ccccc3s2)c1 | -10.5
O=C1OC(c2ccccc2F)=N/C1=C\c1cccc2ccccc12 | 78.4
CCC1=NN(C(=O)c2cccnc2)C(O)(c2ccncc2)C1 (stereo unspecified) | -12
O=C(c1ccc(Br)o1)N1CCN(c2ccc([N+](=O)[O-])cc2)CC1 | -7.2
O=C(O)c1cc(S(=O)(=O)N2CCCCC2)ccc1O | -1.5
COC(=O)C1CC(=O)OC1c1ccccc1 (stereo unspecified) | 15.9
Cc1cc(OC2CCCCC2)nc(-c2ccccc2O)n1 | 2.6
CCOC(=O)c1ccccc1NC(=O)C1CN(S(=O)(=O)c2ccccc2)CCN1S(=O)(=O)c1ccccc1 (stereo unspecified) | 0.1
Clc1ccc(C=NN2CCN(Cc3ccccc3Cl)CC2)cc1 | -5.4
CCN(C1CCCCC1)S(=O)(=O)c1ccc(F)cc1 | -5.9
CC(=O)CC(=O)Nc1cccc([N+](=O)[O-])c1 | 1.9
O=C(COc1ccccc1)NNC(=O)COc1ccc(Br)cc1 | 4.8
COC(=O)c1ccccc1NS(=O)(=O)c1ccc(NC(C)=O)cc1 | 11.6

SMILES | displacement [%]
O=C(Nc1ccc2oc(-c3cccc(Br)c3)nc2c1)c1ccc([N+](=O)[O-])cc1Cl | 5.9
CCC1CCc2c(sc(NC(=O)C3C4CCC(C4)C3C(=O)O)c2C(=O)OC(C)C)C1 (stereo unspecified) | 2.3
O=C(O)CCN=C1CCc2ccccc2N1 | -1.7
N/C(=N\OC(=O)c1ccc(Br)cc1)c1cccnc1 | -1.1
CC(=O)Nc1ccc(S(=O)(=O)Nc2ccc(O)c3ccccc23)cc1 | 9.4
CCCNC(=O)COc1ccc(C)cc1Br | 6.6
Cc1ccc(-c2ccc(OCC(=O)Nc3cccc([N+](=O)[O-])c3)cc2)cc1 | -2.6
Cc1c(C(=O)Nc2cccc(-c3nc4ncccc4o3)c2)cccc1[N+](=O)[O-] | -1.3
CCCOc1ccc(N2C(=O)CC(N3CCN(C(=O)OCC)CC3)C2=O)cc1 (stereo unspecified) | -3
O=C1C=C(c2cccc([N+](=O)[O-])c2)C(=O)N1c1ccc(Cl)cc1 | -4.3
CC(C)=N/N=C1/NC(=O)C(CC(=O)Nc2ccc(C)c(C)c2)S1 (stereo unspecified) | -27.3
O=C1C(Cl)=C(Nc2ccc(Nc3ccccc3)cc2)C(=O)c2ccccc21 | 16.4
Cc1ccc(N2C(=O)C3C4C=CC(C5CC45)C3C2=O)cc1Cl (stereo unspecified) | 2.9
CCc1nnc(NS(=O)(=O)c2ccc(NS(=O)(=O)c3ccc(C)cc3)cc2)s1 | -3.9
Cc1ccc(C(=O)NCc2ccccn2)cc1[N+](=O)[O-] | -17.4
Cc1nc2c(Cl)cccc2c2c1CC(C(C)(Cl)Br)O2 (stereo unspecified) | -3.8
O=C(CSc1nc2ccccc2[nH]1)Nc1ccc(Cl)c(Cl)c1 | -10.3
CCCn1c(/N=C(\C)c2cc(Cl)ccc2O)nc2ccccc21 | 4.5
COc1ccc(C(=O)Nc2ccc3c(c2)OCO3)cc1 | -4.2
CCN(CC)c1ccc(/C=N\NC(N)=O)cc1 | 14.9
COc1ccc(CNC(=O)c2ccc([N+](=O)[O-])o2)cc1 | -10.3
Cc1cn(S(=O)(=O)c2ccc3ccccc3c2)cn1 | 14.1
O=C1C2C3C=CC(O3)C2C(=O)N1c1cc(C(F)(F)F)ccc1Cl (stereo unspecified) | 5.9
CC(=O)NC1(Nc2ccc(C)cc2)C(=O)c2ccccc2C1=O | -0.6

SMILES | displacement [%]
COc1ccc2nc(SCC(=O)Nc3ccc(/C=C/c4ccccc4)cc3)[nH]c2c1 | 6.3
CCc1c(C)nc2[nH]nc(-c3ccccc3OC)n2c1=O | -9.8
CC(C)c1ccc(CNc2cc(N3CCN(S(C)(=O)=O)CC3)ccc2[N+](=O)[O-])cc1 | -4.6
COc1ccc(C(=O)N2CCN(C(=O)COc3ccccc3)CC2)cc1 | 1.7
Cc1nc2cc(S(N)(=O)=O)ccc2n1-c1ccccc1 | 14.4
COCC(=O)Nc1cc(Cl)ccc1C | -1.2
Cc1ccc(/C(N)=N/OC(=O)c2cccc([N+](=O)[O-])c2C)cc1 | 5.5
O=C1CC(Nc2ccccc2)C(=O)N1c1ccc(N2CCOCC2)cc1 (stereo unspecified) | -3.8
CCCC(C)NC(=O)c1ccc(Cl)cc1Cl (stereo unspecified) | 0.9
CCOc1ccc(-c2csc(N)c2C(=O)OC)cc1 | -7.2
Cc1c(NC(=O)c2c(Cl)cccc2Cl)c(=O)n(-c2ccccc2)n1C | 15.1
COc1cc(OC)cc(C(=O)Nc2ccc(-c3ccc(NC(=O)c4cc(OC)cc(OC)c4)c(OC)c3)cc2OC)c1 | 10.4
COc1ccc(Br)cc1/C=N/n1cnnc1 | 13.3
CC1Cc2ccccc2N1C(=O)c1ccc(N2CCCCC2)c([N+](=O)[O-])c1 (stereo unspecified) | -2
O=S(=O)(Nc1nc2ccccc2s1)c1cccs1 | -4.6
Cc1ccc(C(C)C)c(OCCNS(C)(=O)=O)c1 | 1
O=C(O)c1cc(NC(=O)c2cccc(C(=O)Nc3cc(C(=O)O)cc(C(=O)O)c3)c2)cc(C(=O)O)c1 | 3.6
CC(CCc1ccc(C(=O)CCCC(=O)O)s1)CC(=O)O (stereo unspecified) | 5.3
COc1ccccc1N1C(=O)CC(S/C(N)=N/N=C(\C)c2ccc(F)cc2)C1=O (stereo unspecified) | -9.1
O=C(O/N=C/c1ccc([N+](=O)[O-])o1)c1ccccc1Br | 0.9
N#CC1=C(SCC(N)=O)NC(=O)CC1c1ccsc1 (stereo unspecified) | -2.1
COc1ccc(S(=O)(=O)N2CCSC2c2ccccc2Cl)cc1 (stereo unspecified) | 11.1
CC(Oc1ccc(Cl)cc1Cl)C(=O)N1CCN(c2ccccc2)CC1 (stereo unspecified) | -8.4
